The record followed here is publication PMC4336329 (PLoS ONE, 2015).

The campaign covered roughly 310,000 compounds. About 2,200 (0.71%) showed an effect of 50% or more. Effects have a minus sign here. Some of the results follow.

Chain of human ether-à-go-go-related gene (hERG) potassium channel (Q12809 whole entry, looked up): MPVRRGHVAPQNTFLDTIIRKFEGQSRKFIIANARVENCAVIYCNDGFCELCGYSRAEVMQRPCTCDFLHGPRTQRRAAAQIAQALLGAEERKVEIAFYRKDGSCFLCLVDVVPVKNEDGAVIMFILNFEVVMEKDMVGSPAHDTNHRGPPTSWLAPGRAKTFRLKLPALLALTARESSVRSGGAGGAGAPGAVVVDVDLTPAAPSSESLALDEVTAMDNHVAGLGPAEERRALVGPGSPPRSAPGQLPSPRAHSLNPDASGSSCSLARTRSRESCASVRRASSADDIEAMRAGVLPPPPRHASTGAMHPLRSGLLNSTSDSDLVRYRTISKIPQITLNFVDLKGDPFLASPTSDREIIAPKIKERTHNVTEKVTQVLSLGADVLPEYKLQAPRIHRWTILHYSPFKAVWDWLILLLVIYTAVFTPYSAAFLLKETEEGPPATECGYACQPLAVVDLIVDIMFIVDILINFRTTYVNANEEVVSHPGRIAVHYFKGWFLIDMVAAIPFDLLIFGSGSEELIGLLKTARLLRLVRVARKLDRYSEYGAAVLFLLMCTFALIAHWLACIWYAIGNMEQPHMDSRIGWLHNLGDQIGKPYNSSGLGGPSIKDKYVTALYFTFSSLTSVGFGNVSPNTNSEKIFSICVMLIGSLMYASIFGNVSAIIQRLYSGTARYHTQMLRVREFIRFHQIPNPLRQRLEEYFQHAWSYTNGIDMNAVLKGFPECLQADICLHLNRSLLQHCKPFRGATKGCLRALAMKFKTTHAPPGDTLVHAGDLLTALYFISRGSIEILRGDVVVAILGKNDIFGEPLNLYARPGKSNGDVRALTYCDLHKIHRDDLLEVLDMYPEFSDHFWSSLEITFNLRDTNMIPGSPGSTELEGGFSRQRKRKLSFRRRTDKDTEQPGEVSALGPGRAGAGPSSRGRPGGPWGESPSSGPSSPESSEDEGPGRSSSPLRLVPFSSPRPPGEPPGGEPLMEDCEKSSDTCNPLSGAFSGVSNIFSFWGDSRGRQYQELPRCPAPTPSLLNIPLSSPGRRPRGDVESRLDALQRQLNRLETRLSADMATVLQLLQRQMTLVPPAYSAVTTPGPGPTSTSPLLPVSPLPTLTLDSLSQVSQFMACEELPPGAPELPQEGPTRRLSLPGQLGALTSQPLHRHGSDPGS

The assay concerns the target human ether-à-go-go-related gene (hERG) potassium channel (human, UniProt Q12809). Nature of the assay: primary screen, population patch clamp on CHO cells stably expressing hERG.
As to `Cc1cccc(C(=O)NCC(=O)OCC(=O)N2CCc3ccccc32)c1`, the “hERG current change (%, negative = inhibition) at 1uM” value came out at 10.4%. In the case of `Cc1nc2cc(NCc3nc4ccccc4n3Cc3ccccc3)ccc2n1C` it was -61.7%. The same measure for `COc1ccc(C(=O)NNC(=O)c2cc3cc(OC)ccc3oc2=O)cc1`: 5.76%.

For the compound `CC(C(=O)NC1CCCCC1)N1CCN(C)CC1.O=C(O)C(=O)O` (centres unmarked), the “hERG current change (%, negative = inhibition) at 1uM” value was 10.9%.

Regarding `CC(NC(=O)c1cnccn1)c1ccc(S(N)(=O)=O)cc1` (centres unmarked), the “hERG current change (%, negative = inhibition) at 1uM” value came out at 11.8%.

On to `CNC(=O)N(O)C1N(/N=C/c2ccc(C)cc2)C(=S)SC1(C)C` (centres unmarked), for which the “hERG current change (%, negative = inhibition) at 1uM” value stood at 17.7%.

Regarding `CC(=O)c1c(C)[nH]c(C(=O)Nc2ccc(C)c(S(=O)(=O)Nc3ccc(C)cc3C)c2)c1C`, the “hERG current change (%, negative = inhibition) at 1uM” value was found to be 5.9%. `CCOc1ccc(C)cc1S(=O)(=O)Nc1cccnc1`: the “hERG current change (%, negative = inhibition) at 1uM” value is given as 8.35%. The same measure for `COc1ccc(C(=O)OCC[N+]2(C)CCCCC2)cc1.[I-]`: 11.5%; for `O=C1Nc2c(c(=O)[nH]c(=O)n2-c2ccccc2)C1(Nc1ncccn1)C(F)(F)F` (centres unmarked): 6.13%; for `COc1ccc(C)cc1S(=O)(=O)N1CCCC(N2CCOCC2)C1` (centres unmarked): 12.1%. In the case of `CCc1ccc(CCC(=O)Nc2ncc(Cc3ccccc3Cl)s2)o1`, the “hERG current change (%, negative = inhibition) at 1uM” value was 18.1%. In the case of `Cc1ccc(CN2CCN(/N=C/c3ccc(N(C)C)cc3)CC2)cc1` it was 8.09%; in that of `CC(C)c1nccn1S(=O)(=O)c1cc([N+](=O)[O-])ccc1Cl`, 9.9%. In the case of `[O-]/C(=C(\C(=S)Nc1ccccc1F)[n+]1ccccc1)c1ccc(OC(F)F)cc1` it was 6.05%. The same measure for `COC(=O)C(NS(=O)(=O)c1ccc(C)cc1)c1ccccc1` (centres unmarked): 5.94%; for `COc1cc(N/N=C(\C)c2ccc(O)c(C)c2)nc(-c2ccccc2)n1`: -17.8%; for `CC(C)c1ccc(NC(=O)CSc2n[nH]c(=O)n2Cc2ccco2)cc1`: 1.77%. `FC(F)(F)c1ccc(CSc2nccn2-c2ccccc2)cc1`: the “hERG current change (%, negative = inhibition) at 1uM” value was found to be 10.1%. In the case of `C=CCn1c(COc2ccc(F)cc2)nnc1SCC(=O)c1c[nH]c2c(CC)cccc12` it was 12.4%; in that of `Cc1cc(C)c(NC(=O)NC(=O)c2ccc(F)cc2)c(C)n1`, 11.1%; in that of `CC(C)N1C[C@@]23C=C[C@@H](O2)C(C(=O)OCc2ccccc2)[C@H]3C1=O` (some centres unmarked), 9.59%.

For `CC(C)Oc1ccc(/C=N/NC(=O)C(CSCc2ccccc2)NC(=O)c2ccc([N+](=O)[O-])cc2)cc1` (centres unmarked), the “hERG current change (%, negative = inhibition) at 1uM” value is 12.8%. In the case of `CCCNC(=O)Cn1cnc2sc(C(=O)N3CCN(CCC)CC3)c(C)c2c1=O` it was 7.59%; in that of `O=C1OC2(O)C3C4C=CC(C4)C3C(=O)N2c2ccccc21` (centres unmarked), 11.6%.

For the compound `Cc1occc1C(=O)Nc1sccc1C(N)=O`, the “hERG current change (%, negative = inhibition) at 1uM” value is 0.783%.

On to `CCC(C)[C@H]1CNCCN1CCc1cccc(F)c1` (some centres unmarked), for which the “hERG current change (%, negative = inhibition) at 1uM” value came to 16.3%. In the case of `O=C(CNC(=O)c1ccco1)Nc1ccncc1` it was 4.53%; in that of `CC(C(=O)NCc1ccc2c(c1)OCO2)c1ccc([N+](=O)[O-])cc1` (centres unmarked), 2.86%; in that of `Cc1ccccc1-n1nc(C(=O)O)c(C)c(C#N)c1=O`, 8.71%.

As to `CCOC(=O)c1ccc(NC(=O)COc2cc(=O)n(CC)c3ccccc23)cc1`, the “hERG current change (%, negative = inhibition) at 1uM” value amounted to 15.6%.

In the case of `Cc1cccc(N(C(=O)CCC(=O)Nc2ccccn2)C(C(=O)NC(C)C)c2ccc(O)cc2)c1` (centres unmarked), the “hERG current change (%, negative = inhibition) at 1uM” value stood at 10.6%.

With `O=C(O)/C(=C\c1ccc(-c2ccccc2[N+](=O)[O-])o1)c1ccccc1`, the “hERG current change (%, negative = inhibition) at 1uM” value is recorded as 15.7%.

On to `Cc1ccc2c(C)c(C(=O)N(C)C(C)c3ccncn3)oc2c1C` (centres unmarked), for which the “hERG current change (%, negative = inhibition) at 1uM” value is on record as 11%. Regarding `Fc1ccc(CNc2cnccn2)cc1`, the “hERG current change (%, negative = inhibition) at 1uM” value came to 12.8%. With `COc1ccc(Cc2nnc3c4cnn(C)c4ncn23)cc1`, the “hERG current change (%, negative = inhibition) at 1uM” value is listed as 2.92%. As for `Cc1cc(C)c2c(CC(=O)N3CCCC3)coc2c1`, the “hERG current change (%, negative = inhibition) at 1uM” value is listed as 12.5%. As to `COc1cc(C(=O)Nc2ccccc2C(=O)NCc2cccnc2)cc(OC)c1OC`, the “hERG current change (%, negative = inhibition) at 1uM” value is on record as 12.2%. The same measure for `COc1ccc(OCCNc2cc(Cl)ccc2[N+](=O)[O-])cc1`: 13.1%; for `O=C(CN1C(=O)NC2(CCOc3ccccc32)C1=O)c1ccc(Br)cc1` (centres unmarked): 4.42%; for `Cc1ccc(CNC(=O)Cn2cnc(S(=O)(=O)N3CCC(C)CC3)c2)o1`: -25%. Take `CC1(C)CC2CC(C)(CN2C(=O)COC(=O)c2n[nH]c(=O)c3ccccc23)C1` (centres unmarked): the “hERG current change (%, negative = inhibition) at 1uM” value is recorded as 1.45%. As for `N#CC1=C(SCc2ccccc2)NC(=O)CC1c1ccccc1` (centres unmarked), the “hERG current change (%, negative = inhibition) at 1uM” value is on record as 8.05%.

Consider `C=CCn1c(=O)c2ccccc2n2nnc(C(=O)OCC)c12`, for which the “hERG current change (%, negative = inhibition) at 1uM” value is given as 14.5%.

`O=C(NCc1ccccn1)Nc1cccc([N+](=O)[O-])c1`: the “hERG current change (%, negative = inhibition) at 1uM” value worked out at 12.5%. For `CCN(CC)N=Nc1ccc(S(=O)(=O)Nc2nc(C)cc(C)n2)cc1`, the “hERG current change (%, negative = inhibition) at 1uM” value is 15.8%.

Regarding `CC(=O)Nc1cccc(NC(=O)CSc2nnc(NC(=O)c3ccco3)s2)c1`, the “hERG current change (%, negative = inhibition) at 1uM” value is on record as 6.28%. In the case of `O=C(CSc1nnc(-c2cccnc2)n1Cc1ccccc1)N1CCOCC1` it was 17%; in that of `Cc1c(C(=O)O)cccc1-n1c(C)cc(C=O)c1C`, 7.72%; in that of `O=C(CCC(=O)NNC(=O)COc1ccccc1)NCc1ccccc1`, 18%. For the compound `COc1ccc(-n2nc(C(=O)NCC(=O)N3CCCC(C)C3)c3ccccc3c2=O)cc1Cl` (centres unmarked), the “hERG current change (%, negative = inhibition) at 1uM” value stood at 10.2%.

As for `COc1ccc(C(=O)COC(=O)CN2C(=O)C3C4C=CC(C5CC45)C3C2=O)cc1` (centres unmarked), the “hERG current change (%, negative = inhibition) at 1uM” value was -4.38%. The same measure for `CCOC(=O)C1=NNC2(c3ccc(C)cc3)C(=O)N(c3ccc(Cl)cc3)C(=O)C12` (centres unmarked): 8.28%; for `O=C(O)C1=C[C@@H](c2ccccc2)C[C@@H](OCCCCO)O1`: 17.1%.

As to `O=C(C[n+]1cc(-c2ccccc2)n2c1CCC2)OCc1ccccc1.[Br-]`, the “hERG current change (%, negative = inhibition) at 1uM” value is on record as 6.44%. The same measure for `C=CCSC1=N/C(=C\c2ccc3c(c2)OCO3)C(=O)S1`: 3.67%.

With `COc1ccccc1N1CCN(S(=O)(=O)c2ccc3c4c(cccc24)C(=O)N3)CC1`, the “hERG current change (%, negative = inhibition) at 1uM” value turned out to be 6.87%. In the case of `COc1ccc(NC(C)=O)cc1NC(=O)CSc1nnc(-c2cccnc2)n1C` it was -0.667%.

As to `O=C(/C=C/c1ccccc1[N+](=O)[O-])NCCc1ccc(F)cc1`, the “hERG current change (%, negative = inhibition) at 1uM” value is on record as -2.5%. On to `Cc1ccc(C(=O)CSc2nc3ccccc3c(=O)[nH]2)cc1`, for which the “hERG current change (%, negative = inhibition) at 1uM” value is 6.75%. The same measure for `Cc1cc(C)nc(NS(=O)(=O)c2ccc(NC(=O)c3ccc(S(=O)(=O)N(C)C)cc3)cc2)n1`: 9.2%. In the case of `CC(O)[C@H](NC(=O)C1(c2ccccc2)CCN(C(=O)OC(C)(C)C)CC1)C(=O)O` (some centres unmarked) it was 13.1%; in that of `COc1cc(/C=C(\C#N)C(=O)NCC2CCCO2)ccc1OC(C)C` (centres unmarked), 6.85%.

With `CCCCCC(=O)NC(=S)NC1C2CC3CC(C2)CC1C3` (centres unmarked), the “hERG current change (%, negative = inhibition) at 1uM” value is on record as 13.7%.

On to `O=C(/C=C/c1ccco1)NCC(=O)N/N=C/c1ccccc1[N+](=O)[O-]`, for which the “hERG current change (%, negative = inhibition) at 1uM” value is -8.89%. The same measure for `Clc1ccccc1C1=Nn2c(nnc2-c2ccco2)SC1`: 4.48%; for `CCOc1ccccc1NC(=S)Nc1ncccc1C`: 2.51%; for `Cc1ccc(S(=O)(=O)Nc2ccc(C(=O)NCCCn3ccnc3)cc2)cc1[N+](=O)[O-]`: 0.434%. The same measure for `CCOC(=O)c1cc(-c2ccc(Cl)s2)[nH]n1`: 22.3%.

For the compound `COc1ccc(S(=O)(=O)/N=C2/NC(=O)/C(=C\c3ccco3)S2)cc1`, the “hERG current change (%, negative = inhibition) at 1uM” value is 6.86%. The same measure for `COc1cc(C(c2nnnn2C(C)(C)C)N2CCN(C)CC2)cc(OC)c1OC` (centres unmarked): 5.99%. As to `O=C(NCc1ccco1)c1ccc(Cl)c(S(=O)(=O)N2CCc3ccccc32)c1`, the “hERG current change (%, negative = inhibition) at 1uM” value came to 10.6%. In the case of `N#Cc1nc(-c2ccco2)oc1NCc1ccccc1Cl` it was 9.84%; in that of `CC(=O)c1c[nH]c(C(=O)NC2CCCCCC2)c1`, 5.37%. In the case of `O=C(CSCc1cccc(Cl)c1)NCc1ccc2c(c1)OCO2` it was -1.19%. In the case of `CCOC(=O)CCSCC(=O)Nc1cc(C)on1` it was 2.22%; in that of `O=[N+]([O-])c1ccc(N2CCc3ccccc3C2)cc1`, 1.78%. Turning to `O=C(Nc1ccccc1C(=O)NCc1ccccc1)c1ccccc1`, the “hERG current change (%, negative = inhibition) at 1uM” value worked out at 9.01%. In the case of `Nc1nnc(SCc2coc(-c3ccc(Cl)cc3)n2)s1` it was 10.8%; in that of `C=C1C(=O)O[C@@H]2[C@H]1CC[C@H](C)[C@]1(O)CCC(=O)[C@@]21C`, 17.1%. The same measure for `Cc1nn2c(N3CCOCC3)c3c(nc2c1-c1ccccc1)CCCC3`: 12.4%; for `O=C(N/N=C/c1cccnc1)c1cccc(F)c1`: 2.08%; for `O=c1c2[nH]c3ccccc3c2ncn1CCN1CCNCC1`: 6.89%. Take `CNC(=O)C(C)c1ncc(C(F)(F)F)cc1Cl` (centres unmarked): the “hERG current change (%, negative = inhibition) at 1uM” value came out at 12.6%. The same measure for `CCc1cc(-c2n[nH]c(C)c2-c2ccccc2Cl)c(O)cc1OC`: 16%; for `Cc1nnc(Cl)c2nn(-c3ccccc3F)c(C)c12`: 9.23%; for `CCNS(=O)(=O)c1ccc(CCC(=O)N2CCOCC2)cc1`: 24.1%.

In the case of `O=C(CSc1nnc(-c2cnccn2)n1Cc1ccco1)c1ccc(Cl)cc1`, the “hERG current change (%, negative = inhibition) at 1uM” value is recorded as -8.23%. Consider `CCCCC[C@H](O)/C=C/[C@H]1[C@H](O)CC(=O)[C@@H]1CCCCCCC(=O)O`, for which the “hERG current change (%, negative = inhibition) at 1uM” value is 1.21%.
